# The supplement of paper PMC8728848
# The list shows a part of the results.
# B1: SBD-G4S3-SBD (protein)
# chain: MASIPSSASVQLDSYNYDGSTFSGKIYVKNIAYSKKVTVVYADGSDNWNNNGNIIAASFSGPISGSNYEYWTFSASVKGIKEFYIKYEVSGKTYYDNNNSANYQVSTGGGGSGGGGSGGGGSEFASIPSSASVQLDSYNYDGSTFSGKIYVKNIAYSKKVTVVYADGSDNWNNNGNIIAASFSGPISGSNYEYWTFSASVKGIKEFYIKYEVSGKTYYDNNNSANYQVST
# Legend:
# Assay in all cases: glycan array binding signal (z-score within array); higher = stronger binding
# Conditions in all cases: glycan notation: IUPAC condensed, linker removed
# [1] = biological target: Gal(b1-4)GlcNAc(b1-2)[Gal(b1-4)GlcNAc(b1-6)]Man(a1-6)[GlcNAc(b1-4)][Gal(b1-4)GlcNAc(b1-2)Man(a1-3)]Man(b1-4)GlcNAc(b1-4)GlcNAc
# Outline: (§1)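 Glycan array binding is given as a within-array Z-score, which can be read as non-binding when negative. The arrays, 3228 of them, came from the Consortium for Functional Glycomics database and were retained only where the protein sequence was available. Z-scores were averaged across arrays of the same protein sequence at different concentrations or buffers and across linkers.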
# [2] = biological target: Gal(b1-4)GlcNAc(b1-2)[Gal(b1-4)GlcNAc(b1-6)]Man(a1-6)[GlcNAc(b1-4)][Gal(b1-4)GlcNAc(b1-2)[Gal(b1-4)GlcNAc(b1-4)]Man(a1-3)]Man(b1-4)GlcNAc(b1-4)[Fuc(a1-6)]GlcNAc
# Outline: as §1
# [3] = biological target: Gal(b1-4)GlcNAc(b1-3)Gal(b1-3)GalNAc
# Outline: as §1
# [4] = biological target: Gal(b1-4)GlcNAc(b1-3)Gal(b1-3)GlcNAc
# Outline: as §1
# [5] = biological target: Gal(b1-4)GlcNAc(b1-3)Gal(b1-4)Glc
# Outline: as §1
# [6] = biological target: Gal(b1-4)GlcNAc(b1-3)Gal(b1-4)GlcNAc
# Outline: as §1
# [7] = biological target: Gal(b1-4)GlcNAc(b1-3)Gal(b1-4)GlcNAc(b1-2)Man(a1-3)[Gal(b1-4)GlcNAc(b1-3)Gal(b1-4)GlcNAc(b1-2)Man(a1-6)]Man(b1-4)GlcNAc(b1-4)GlcNAc
# Outline: as §1
# [8] = biological target: Gal(b1-4)GlcNAc(b1-3)Gal(b1-4)GlcNAc(b1-2)Man(a1-3)[Gal(b1-4)GlcNAc(b1-3)Gal(b1-4)GlcNAc(b1-2)Man(a1-6)]Man(b1-4)GlcNAc(b1-4)[Fuc(a1-6)]GlcNAc
# Outline: as §1
# [9] = biological target: Gal(b1-4)GlcNAc(b1-3)Gal(b1-4)GlcNAc(b1-2)[Gal(b1-4)GlcNAc(b1-3)Gal(b1-4)GlcNAc(b1-6)]Man(a1-6)[Gal(b1-4)GlcNAc(b1-3)Gal(b1-4)GlcNAc(b1-2)Man(a1-3)]Man(b1-4)GlcNAc(b1-4)GlcNAc
# Outline: as §1
# [10] = biological target: Gal(b1-4)GlcNAc(b1-3)Gal(b1-4)GlcNAc(b1-2)[Gal(b1-4)GlcNAc(b1-3)Gal(b1-4)GlcNAc(b1-6)]Man(a1-6)[Gal(b1-4)GlcNAc(b1-3)Gal(b1-4)GlcNAc(b1-2)Man(a1-3)]Man(b1-4)GlcNAc(b1-4)[Fuc(a1-6)]GlcNAc
# Outline: as §1
# [11] = biological target: Gal(b1-4)GlcNAc(b1-3)Gal(b1-4)GlcNAc(b1-3)Gal(b1-4)GlcNAc
# Outline: as §1
# [12] = biological target: Gal(b1-4)GlcNAc(b1-3)Gal(b1-4)GlcNAc(b1-3)Gal(b1-4)GlcNAc(b1-2)Man(a1-3)[Gal(b1-4)GlcNAc(b1-3)Gal(b1-4)GlcNAc(b1-3)Gal(b1-4)GlcNAc(b1-2)Man(a1-6)]Man(b1-4)GlcNAc(b1-4)GlcNAc
# Outline: as §1
# [13] = biological target: Gal(b1-4)GlcNAc(b1-3)Gal(b1-4)GlcNAc(b1-3)Gal(b1-4)GlcNAc(b1-2)Man(a1-3)[Gal(b1-4)GlcNAc(b1-3)Gal(b1-4)GlcNAc(b1-3)Gal(b1-4)GlcNAc(b1-2)Man(a1-6)]Man(b1-4)GlcNAc(b1-4)[Fuc(a1-6)]GlcNAc
# Outline: as §1
# [14] = biological target: Gal(b1-4)GlcNAc(b1-3)Gal(b1-4)GlcNAc(b1-3)Gal(b1-4)GlcNAc(b1-2)[Gal(b1-4)GlcNAc(b1-3)Gal(b1-4)GlcNAc(b1-3)Gal(b1-4)GlcNAc(b1-6)]Man(a1-6)[Gal(b1-4)GlcNAc(b1-3)Gal(b1-4)GlcNAc(b1-3)Gal(b1-4)GlcNAc(b1-2)Man(a1-3)]Man(b1-4)GlcNAc(b1-4)[Fuc(a1-6)]GlcNAc
# Outline: as §1
# [15] = biological target: Gal(b1-4)GlcNAc(b1-3)Gal(b1-4)GlcNAc(b1-3)Gal(b1-4)GlcNAc(b1-3)Gal(b1-4)GlcNAc(b1-2)Man(a1-3)[Gal(b1-4)GlcNAc(b1-3)Gal(b1-4)GlcNAc(b1-3)Gal(b1-4)GlcNAc(b1-3)Gal(b1-4)GlcNAc(b1-2)Man(a1-6)]Man(b1-4)GlcNAc(b1-4)GlcNAc
# Outline: as §1
# [16] = biological target: Gal(b1-4)GlcNAc(b1-3)Gal(b1-4)GlcNAc(b1-3)Gal(b1-4)GlcNAc(b1-3)Gal(b1-4)GlcNAc(b1-2)Man(a1-3)[Gal(b1-4)GlcNAc(b1-3)Gal(b1-4)GlcNAc(b1-3)Gal(b1-4)GlcNAc(b1-3)Gal(b1-4)GlcNAc(b1-2)Man(a1-6)]Man(b1-4)GlcNAc(b1-4)[Fuc(a1-6)]GlcNAc
# Outline: as §1
# [17] = biological target: Gal(b1-4)GlcNAc(b1-3)Gal(b1-4)GlcNAc(b1-3)Gal(b1-4)GlcNAc(b1-3)Gal(b1-4)GlcNAc(b1-2)[Gal(b1-4)GlcNAc(b1-3)Gal(b1-4)GlcNAc(b1-3)Gal(b1-4)GlcNAc(b1-3)Gal(b1-4)GlcNAc(b1-6)]Man(a1-6)[Gal(b1-4)GlcNAc(b1-3)Gal(b1-4)GlcNAc(b1-3)Gal(b1-4)GlcNAc(b1-3)Gal(b1-4)GlcNAc(b1-2)Man(a1-3)]Man(b1-4)GlcNAc(b1-4)[Fuc(a1-6)]GlcNAc
# Outline: as §1
# [18] = biological target: Gal(b1-4)GlcNAc(b1-3)Gal(b1-4)GlcNAc(b1-3)Gal(b1-4)GlcNAc(b1-3)Gal(b1-4)GlcNAc(b1-3)Gal(b1-4)GlcNAc(b1-2)Man(a1-3)[Gal(b1-4)GlcNAc(b1-3)Gal(b1-4)GlcNAc(b1-3)Gal(b1-4)GlcNAc(b1-3)Gal(b1-4)GlcNAc(b1-3)Gal(b1-4)GlcNAc(b1-2)Man(a1-6)]Man(b1-4)GlcNAc(b1-4)GlcNAc
# Outline: as §1
# [19] = biological target: Gal(b1-4)GlcNAc(b1-3)Gal(b1-4)GlcNAc(b1-3)Gal(b1-4)GlcNAc(b1-3)Gal(b1-4)GlcNAc(b1-3)Gal(b1-4)GlcNAc(b1-2)Man(a1-3)[Gal(b1-4)GlcNAc(b1-3)Gal(b1-4)GlcNAc(b1-3)Gal(b1-4)GlcNAc(b1-3)Gal(b1-4)GlcNAc(b1-3)Gal(b1-4)GlcNAc(b1-2)Man(a1-6)]Man(b1-4)GlcNAc(b1-4)[Fuc(a1-6)]GlcNAc
# Outline: as §1
# [20] = biological target: Gal(b1-4)GlcNAc(b1-3)Gal(b1-4)GlcNAc(b1-3)Gal(b1-4)GlcNAc(b1-3)Gal(b1-4)GlcNAc(b1-3)Gal(b1-4)GlcNAc(b1-2)[Gal(b1-4)GlcNAc(b1-3)Gal(b1-4)GlcNAc(b1-3)Gal(b1-4)GlcNAc(b1-3)Gal(b1-4)GlcNAc(b1-3)Gal(b1-4)GlcNAc(b1-6)]Man(a1-6)[Gal(b1-4)GlcNAc(b1-3)Gal(b1-4)GlcNAc(b1-3)Gal(b1-4)GlcNAc(b1-3)Gal(b1-4)GlcNAc(b1-3)Gal(b1-4)GlcNAc(b1-2)Man(a1-3)]Man(b1-4)GlcNAc(b1-4)[Fuc(a1-6)]GlcNAc
# Outline: as §1
# [21] = biological target: Gal(b1-4)GlcNAc(b1-3)Gal(b1-4)GlcNAc(b1-3)Gal(b1-4)GlcNAc(b1-3)Gal(b1-4)GlcNAc(b1-3)Gal(b1-4)GlcNAc(b1-3)Gal(b1-4)GlcNAc(b1-2)Man(a1-3)[Gal(b1-4)GlcNAc(b1-3)Gal(b1-4)GlcNAc(b1-3)Gal(b1-4)GlcNAc(b1-3)Gal(b1-4)GlcNAc(b1-3)Gal(b1-4)GlcNAc(b1-3)Gal(b1-4)GlcNAc(b1-2)Man(a1-6)]Man(b1-4)GlcNAc(b1-4)GlcNAc
# Outline: as §1
# [22] = biological target: Gal(b1-4)GlcNAc(b1-3)Gal(b1-4)GlcNAc(b1-3)GalNAc
# Outline: as §1
# [23] = biological target: Gal(b1-4)GlcNAc(b1-3)Gal(b1-4)GlcNAc(b1-3)[Gal(b1-4)GlcNAc(b1-3)Gal(b1-4)GlcNAc(b1-6)]GalNAc
# Outline: as §1
binder,measurement,setting,value
B1,glycan array binding signal (z-score),[1],0.505
same,glycan array binding signal (z-score),[2],-0.285
same,glycan array binding signal (z-score),[3],-0.052
same,glycan array binding signal (z-score),[4],1.25
same,glycan array binding signal (z-score),[5],-0.301
same,glycan array binding signal (z-score),[6],-0.394
same,glycan array binding signal (z-score),[7],0.379
same,glycan array binding signal (z-score),[8],2.59
same,glycan array binding signal (z-score),[9],0.685
same,glycan array binding signal (z-score),[10],2.48
same,glycan array binding signal (z-score),[11],-0.123
same,glycan array binding signal (z-score),[12],1.38
same,glycan array binding signal (z-score),[13],3.24
same,glycan array binding signal (z-score),[14],2.17
same,glycan array binding signal (z-score),[15],1.39
same,glycan array binding signal (z-score),[16],7.46
same,glycan array binding signal (z-score),[17],1.54
same,glycan array binding signal (z-score),[18],-0.082
same,glycan array binding signal (z-score),[19],2.81
same,glycan array binding signal (z-score),[20],8.43
same,glycan array binding signal (z-score),[21],2.72
same,glycan array binding signal (z-score),[22],-0.183
same,glycan array binding signal (z-score),[23],-0.31
